Results taken from PubChem BioAssay (NCI).
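1) Cells in 96-well plates. 2) Compound, 48 h, 5 concentrations. 3) Linear interpolation between surrounding doses. 4) Unreached endpoint = highest concentration. GI50 marks 50% less growth. TGI: total growth inhibition.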

What follows are compounds tested on NCI-H322M lung (assay: NCI tumour cell line growth inhibition, 48 h).

Compound | GI50 [µM] | TGI [µM]
O=C(Nc1ccc(OCC(=O)c2ccccc2)cc1)Nc1ccc(Cl)c(C(F)(F)F)c1 | 3.86 | > 100
CCn1c(SCC(=O)Nc2ccc(-c3nc4ccccc4[nH]3)cc2)nc2ccccc2c1=O | 1.7 | 3.65
COc1ccc2nc(Cl)c(-c3cc(-c4ccccc4)nc(=O)[nH]3)cc2c1 | 17 | 55.2
O=C1Nc2cc(-c3ccc(NS(=O)(=O)c4ccc([N+](=O)[O-])cc4)cc3)ccc2/C1=C/c1ccc[nH]1 | 20.5 | > 100
